Biological target: T1, mCherry-HSP90β-S226E, S255E mutant (in mouse ESCs) (UniProt P08238, S226E | S255E)
T1 construct: HSP90β; Expressed beside the endogenous wild-type HSP90; also called mCherry-HSP90β-EE; EE mutant; source: mouse ESCs, transfected (Lipofectamine 3000), in lysate; not shown: mCherry, N-terminal, kept
Assay: affinity purification with mass spectrometry; RFP Selector resin with lysates of SILAC-labelled mouse ESCs expressing mCherry-HSP90β EE or AA, 4 °C, 90 min; heavy and light samples immunoprecipitated separately, then combined, SDS-PAGE, quantitative MS
Conditions: partners not purified

T1 sequence (P08238 whole entry S226E/S255E): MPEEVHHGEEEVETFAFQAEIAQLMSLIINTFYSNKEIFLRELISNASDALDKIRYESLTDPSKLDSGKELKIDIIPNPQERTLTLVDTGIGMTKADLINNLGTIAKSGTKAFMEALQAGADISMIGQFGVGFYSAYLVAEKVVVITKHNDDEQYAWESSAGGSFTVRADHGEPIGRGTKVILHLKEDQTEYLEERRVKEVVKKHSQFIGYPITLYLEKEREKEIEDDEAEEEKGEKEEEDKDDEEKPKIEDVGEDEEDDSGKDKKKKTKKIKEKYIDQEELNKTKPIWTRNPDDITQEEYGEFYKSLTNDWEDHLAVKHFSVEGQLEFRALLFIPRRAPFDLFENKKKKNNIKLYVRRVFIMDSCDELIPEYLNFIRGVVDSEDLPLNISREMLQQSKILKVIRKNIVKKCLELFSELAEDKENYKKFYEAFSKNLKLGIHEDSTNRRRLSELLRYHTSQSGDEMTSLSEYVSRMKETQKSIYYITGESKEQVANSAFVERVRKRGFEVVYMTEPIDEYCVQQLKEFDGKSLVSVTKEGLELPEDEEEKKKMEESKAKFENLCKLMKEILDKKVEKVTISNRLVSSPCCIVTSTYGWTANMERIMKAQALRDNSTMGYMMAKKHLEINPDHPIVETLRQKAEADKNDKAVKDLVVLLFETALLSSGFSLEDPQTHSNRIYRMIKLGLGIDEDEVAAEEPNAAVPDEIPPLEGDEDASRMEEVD

- fold EE:AA (SILAC ratio of co-purified Oct4): 1.4 fold
B1: Oct4 (natural protein)
chain: not shown
notes: transcription factor Oct4, mouse; source: endogenous, mouse ESC lysate

From publication PMC11484706, “Phosphorylation-driven epichaperome assembly is a regulator of cellular adaptability and proliferation” (Nature Communications, 2024)
